Experimental data from PubChem BioAssay AID761 (NMMLSC, 2007).
Screen size: about 190,000 compounds; about 400 (0.21%) were called active. The inconclusive results got no clear call from the source; some entries with a clear call stand among them for comparison.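 The calls were made as follows: active = percent activity GTP binding at least 20 points away from the 100% baseline, either down as inhibitor or up as activator; inconclusive = compound flagged as likely green fluorescent from well-wide comparison; inactive = the rest.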

These compounds were tested against Cell division control protein 42 homolog (Homo sapiens) (UniProt P60953) (assay: wildtype Cdc42 fluorescent GTP binding changes, either direction – biochemical, multiplex bead flow cytometry, Bodipy-GTP, primary screen (AID 761;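 also: median bead fluorescence of bound Bodipy-FL-GTP at 100 nM; 0% = excess unlabeled GTP control and 100% = no compound control; below 100% means less GTP binding so inhibitor and above means activator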)). Conditions: GST-Cdc42 beads, at 10 µM, actives lie on both sides.
UniProt P60953, sequence (P60953 whole entry, looked up): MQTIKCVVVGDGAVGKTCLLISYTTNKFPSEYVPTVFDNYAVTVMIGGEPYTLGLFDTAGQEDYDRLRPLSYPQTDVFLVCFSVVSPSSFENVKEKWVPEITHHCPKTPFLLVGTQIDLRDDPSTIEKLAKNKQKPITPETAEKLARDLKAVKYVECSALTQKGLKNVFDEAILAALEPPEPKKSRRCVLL
In the case of `Cc1ccc([N+](=O)[O-])c(OCCCNCC(C)O)c1` (stereo not drawn), the percent activity (GTP binding) is reported as inactive: 103%. In the case of `CN1C2CCC1/C(=C\c1ccccc1)C(=O)/C2=C\c1ccccc1`, the percent activity (GTP binding) is reported as inconclusive: 113%. With `CCCCCCC1CCC(c2nc(-c3ccncc3)no2)CC1` (stereo not drawn) the percent activity (GTP binding) was inactive: 101%. In the case of `COc1ccc(CCNC(=O)Cn2nc(C(=O)O)c3ccccc3c2=O)cc1OC`, the percent activity (GTP binding) is reported as inconclusive: 94%. `O=C(Nc1cccc2nsnc12)c1ccc(F)cc1` was tested, and the percent activity (GTP binding) was inconclusive: 105%. `O=C(CS(=O)(=O)c1c[nH]c2ccccc12)N1CCc2ccccc21` was tested, and the percent activity (GTP binding) was inactive: 96%. For `O=C(COc1ccc(Cl)cc1)N1CCN(C(=O)c2cccs2)CC1`, the percent activity (GTP binding) was inactive: 101%. For `CCOC(=O)c1nn(-c2cccc(OC)c2)c2nc(Nc3ccccc3)cc(=O)n12`, the percent activity (GTP binding) was inconclusive: 102%. With `Cn1nc(C(=O)Nc2cccnc2)c2ccccc2c1=O` the percent activity (GTP binding) was active: 73%. In the case of `CCOC(=O)c1c(NC(=O)COC(=O)Cn2c(C)nc3ccccc32)sc2c1CCCC2`, the percent activity (GTP binding) is reported as inconclusive: 101%. `COC(=O)c1ccccc1NC(=O)CSCC(=O)Nc1ccccc1OC` was tested, and the percent activity (GTP binding) was inactive: 99%. With `Cc1ccc(CN(C(=O)Cn2nnc3ccccc32)C(C(=O)NCc2ccco2)c2cccs2)cc1` (stereo not drawn) the percent activity (GTP binding) was inconclusive: 95%. `C/C(CCc1ccc2c(c1)OCO2)=N\N=C1\NC(=O)CC(C(=O)Nc2ccccc2)S1` (stereo not drawn) was tested, and the percent activity (GTP binding) was inconclusive: 115%. With `CCCCOc1ccc(C(=O)N/N=C/c2cn[nH]c2-c2ccc(OC)c(OC)c2)cc1` the percent activity (GTP binding) was inconclusive: 94%. With `CC(=O)c1c(C)nc(-c2ccccc2)n1O` the percent activity (GTP binding) was inconclusive: 105%. With `CCCCOC(=O)CSC(=S)N(C)Cc1cccs1` the percent activity (GTP binding) was inactive: 102%. `O=C(NC1CCCc2ccccc21)C1CCC(CNS(=O)(=O)c2cccc3nsnc23)CC1` (stereo not drawn) was tested, and the percent activity (GTP binding) was inconclusive: 104%. For `O=c1c2cccnc2[nH]c(=S)n1CCC1=CCCCC1`, the percent activity (GTP binding) was inconclusive: 106%. With `O=C(O)c1cc([N+](=O)[O-])ccc1NCc1ccccc1Cl` the percent activity (GTP binding) was active: 129% [activator]. For `CC(C)c1nc(-c2ccccc2)c(-c2ccccc2)[nH]1`, the percent activity (GTP binding) was inconclusive: 104%. `Cc1ccsc1C(=O)N1CCC(N2CCC(C(=O)NCC3CCCO3)CC2)CC1` (stereo not drawn) was tested, and the percent activity (GTP binding) was inactive: 98%. In the case of `Cc1ccc(NC(=O)CN2C(=O)N/C(=C/c3cc(C)n(-c4cccc(C(=O)O)c4)c3C)C2=O)cc1`, the percent activity (GTP binding) is reported as inconclusive: 82%. In the case of `CCOc1ccc2nc(CN3CCN(Cc4ccsc4)C(CCO)C3)ccc2c1` (stereo not drawn), the percent activity (GTP binding) is reported as inactive: 92%. For `O=C(Nc1ccccc1)C1CCCN1C(=O)Nc1ccccc1[N+](=O)[O-]` (stereo not drawn), the percent activity (GTP binding) was inconclusive: 95%. In the case of `O=C(NN=C1C2CC3CC(C2)CC1C3)c1cccc(S(=O)(=O)N2CCOCC2)c1`, the percent activity (GTP binding) is reported as inactive: 102%. In the case of `Cc1cc(C)cc(-n2c(C)cc(/C=N\NC(=O)COc3cccc4cccnc34)c2C)c1`, the percent activity (GTP binding) is reported as inconclusive: 92%. `CCSc1nnc(-c2cc(Br)ccc2N=Cc2c(C)[nH]n(-c3ccccc3)c2=O)c(=O)[nH]1` was tested, and the percent activity (GTP binding) was inconclusive: 78%. In the case of `CCCCNC(=S)Nc1ccccc1Cc1ccccc1`, the percent activity (GTP binding) is reported as inactive: 95%. With `COc1ccccc1NS(=O)(=O)c1cc(NC(=O)c2ccccc2F)ccc1N1CCOCC1` the percent activity (GTP binding) was inconclusive: 92%. For `COc1ccc(-n2c(=S)[nH]c3cc(C(=O)NCCCN4CCCC4=O)ccc3c2=O)cc1`, the percent activity (GTP binding) was inconclusive: 108%. With `N#CCCN(CCC#N)c1nncs1` the percent activity (GTP binding) was inconclusive: 110%. `O=C(N1CCCCC1)N1CCN(C(c2ccccc2)c2ccccc2)CC1` was tested, and the percent activity (GTP binding) was inconclusive: 103%. In the case of `CCCCCC(=O)NNC(=O)c1ccc(F)cc1`, the percent activity (GTP binding) is reported as inactive: 103%. In the case of `CN(C)C(=O)/C(=C\c1ccncc1)NC(=O)c1ccccc1`, the percent activity (GTP binding) is reported as inconclusive: 96%. For `O=C(NCc1ccc2c(c1)OCO2)c1ccc(CSCc2cccc(Cl)c2)o1`, the percent activity (GTP binding) was active: 79%. In the case of `O=C(CCNS(=O)(=O)c1c(Cl)cccc1Cl)OCC(=O)c1ccccc1`, the percent activity (GTP binding) is reported as inactive: 98%. `COc1ccc(Nc2cc(Cl)nc(N)n2)cc1` was tested, and the percent activity (GTP binding) was inconclusive: 93%. For `Cn1c(CCN2CCOCC2)nc2cc(NC(=O)COc3ccc(Cl)cc3)ccc21`, the percent activity (GTP binding) was inconclusive: 109%. For `O=C1c2ccccc2S(=O)(=O)N1CC(O)Cn1ccc2ccccc21` (stereo not drawn), the percent activity (GTP binding) was inconclusive: 89%. With `CN(CC(=O)Nc1cccc([N+](=O)[O-])c1)S(=O)(=O)c1ccccc1` the percent activity (GTP binding) was inactive: 96%. For `CCC(Sc1ccccc1C(=O)O)C(=O)O` (stereo not drawn), the percent activity (GTP binding) was inconclusive: 105%. With `CC(=O)c1cccc(NC(=O)C(CC(C)C)NC(=O)C2CCCCC2)c1` (stereo not drawn) the percent activity (GTP binding) was inactive: 97%. With `CCN(CC(=O)Nc1cccc(C#N)c1)CC(=O)Nc1cccc(OC)c1` the percent activity (GTP binding) was inconclusive: 89%. `O=C(Nc1ccc2c(c1)OCO2)c1cc2ncc(Br)cn2n1` was tested, and the percent activity (GTP binding) was inconclusive: 96%. For `CCN(CC)S(=O)(=O)c1cccc(-c2nnc(SCC(=O)NC3CCCC3)n2N)c1`, the percent activity (GTP binding) was inconclusive: 95%. In the case of `O=C(Nc1nnc(-c2ccccc2)o1)c1ccc(Cl)cc1`, the percent activity (GTP binding) is reported as inconclusive: 85%. With `Fc1ccc(NC(=S)NNc2ncc(C(F)(F)F)cc2Cl)c(F)c1` the percent activity (GTP binding) was inactive: 94%. For `CN1CC(=O)N(CC(=O)Nc2ccc(Cl)c(C(F)(F)F)c2)C1=O`, the percent activity (GTP binding) was inconclusive: 108%. In the case of `COc1cc(NS(=O)(=O)c2ccc(NC(=O)/C(=C/c3ccccc3Cl)NC(=O)c3ccccc3)cc2)nc(OC)n1`, the percent activity (GTP binding) is reported as inconclusive: 94%. For `COc1cccc(N2CCN(C3CCCC(C)C3)CC2)c1` (stereo not drawn), the percent activity (GTP binding) was inconclusive: 104%. In the case of `N#CC(C#N)=C1C=CC=CN1/C(=C\c1ccccc1Cl)C(=O)c1ccccc1`, the percent activity (GTP binding) is reported as active: 78%. In the case of `Clc1ccc(-c2noc(CN3CCN(c4ccccc4)CC3)n2)cc1`, the percent activity (GTP binding) is reported as inconclusive: 94%. `CN(Cc1c(C(=O)N2CCc3ccccc3C2)nc2ccc(Cl)cn12)C(C1CC1)C1CC1` was tested, and the percent activity (GTP binding) was inactive: 97%. `Cc1cc(C)c2nc(NNC(=O)c3cc(=O)c4ccccc4o3)sc2c1` was tested, and the percent activity (GTP binding) was active: 77%. With `CCCn1nc(Oc2nc(NCC)nc(NC(C)C)n2)ccc1=O` the percent activity (GTP binding) was inconclusive: 105%. For `Cc1cccc2cc(CN(Cc3cccs3)C(c3nnnn3C3CCCC3)C(C)C)c(=O)[nH]c12` (stereo not drawn), the percent activity (GTP binding) was active: 72%. In the case of `O=C(O)C1=C[C@H](c2ccc(C(F)(F)F)cc2)C[C@H](OCc2ccc(CO)cc2)O1`, the percent activity (GTP binding) is reported as active: 74%. With `Oc1ccccc1CNc1ccc(OC(F)(F)F)cc1` the percent activity (GTP binding) was inactive: 95%. In the case of `CCn1c(NC(=S)Nc2ccccc2)nc2ccccc21`, the percent activity (GTP binding) is reported as inconclusive: 107%. For `Cn1c(CCNC(=O)c2cccs2)nnc1SCC(=O)Nc1nc(-c2ccccc2)cs1`, the percent activity (GTP binding) was inconclusive: 102%. For `CCOC(=O)CCNC(=O)Nc1ccc2nc(C)n(Cc3ccc(Cl)cc3)c(=O)c2c1`, the percent activity (GTP binding) was inconclusive: 105%. `N#C/C(=N/O)c1nc(-c2ccc(F)cc2)cs1` was tested, and the percent activity (GTP binding) was inconclusive: 103%. For `Cc1cc(C)c(S(=O)(=O)c2ccccc2C)c(OCC(C)(C)C)n1`, the percent activity (GTP binding) was inconclusive: 97%. With `Cc1cc(NC(=O)c2oc3ccccc3c2C)ccc1-n1cnnn1` the percent activity (GTP binding) was inconclusive: 148%. For `CC(C)Cc1csc(NC(=O)c2ccccc2Cl)c1C(=O)O`, the percent activity (GTP binding) was active: 78%. In the case of `c1ccc2c(c1)[nH]c1nc3nncn3nc12`, the percent activity (GTP binding) is reported as inconclusive: 92%. In the case of `COc1ccc(C(=O)Nc2nnc(-c3cccs3)s2)cc1`, the percent activity (GTP binding) is reported as inconclusive: 107%. In the case of `COC(=O)c1cccc(C(=O)Nc2cnc3ccccc3c2)n1`, the percent activity (GTP binding) is reported as inconclusive: 91%. In the case of `O=C(COC(=O)c1cccnc1Cl)c1ccc(OC(F)F)cc1`, the percent activity (GTP binding) is reported as inactive: 97%. `COc1cc(NC(=S)Nc2cccc(C)n2)cc(OC)c1OC` was tested, and the percent activity (GTP binding) was inconclusive: 92%. In the case of `Cc1nc2nc(SCC(=O)NCCN3CCOCC3)nn2c(C)c1Cc1ccccc1`, the percent activity (GTP binding) is reported as inactive: 99%. In the case of `COC(=O)c1ccccc1NC(=O)CSc1nnnn1-c1ccc(C)cc1C`, the percent activity (GTP binding) is reported as inconclusive: 94%. In the case of `O=C(CSc1ccccc1C(=O)NCc1ccccc1)NC1CCCCCCC1`, the percent activity (GTP binding) is reported as inactive: 95%. In the case of `O=C(NNc1cc(Cl)ccc1Cl)c1cccnc1Cl`, the percent activity (GTP binding) is reported as inactive: 97%. `N=C1/C(=C\c2ccc(SCc3ccco3)o2)C(=O)N=C2SC=NN12` was tested, and the percent activity (GTP binding) was active: 72%. In the case of `COc1ccc2c(c1OC)C(=O)N1c3ccccc3SC21` (stereo not drawn), the percent activity (GTP binding) is reported as inconclusive: 105%. With `c1ccc(-n2nnnc2SCc2cn3ccccc3n2)cc1` the percent activity (GTP binding) was inconclusive: 104%. In the case of `COc1cccc(Oc2cncnc2-c2ccc(OC)cc2O)c1`, the percent activity (GTP binding) is reported as inconclusive: 94%. For `COc1ccc(/C=N/Nc2ncnc3sc4c(c23)CCCC4)cc1O`, the percent activity (GTP binding) was active: 73%. In the case of `O=C(O)c1ccc(CSc2nnc(-c3cccnc3)n2-c2ccc(Br)cc2)cc1`, the percent activity (GTP binding) is reported as inactive: 94%. With `CCN(CC)C(=O)Cn1c(=O)c2ccccc2n2c(=S)sc(-c3cccc(C)c3)c12` the percent activity (GTP binding) was inactive: 99%. For `S=C(Nc1ccccc1)N1N=C(c2cccs2)CC1c1cccs1` (stereo not drawn), the percent activity (GTP binding) was inactive: 96%. `Cc1[nH]c(C)c(C(=O)O)c1CNC1CCCCC1C` (stereo not drawn) was tested, and the percent activity (GTP binding) was inconclusive: 106%. In the case of `COc1cc(CNC(C)(C)CO)ccc1OCC(=O)Nc1ccc(Br)cc1`, the percent activity (GTP binding) is reported as inactive: 106%. With `CC(OC(=O)C1CC1)C(=O)Nc1ccc([N+](=O)[O-])cc1Cl` (stereo not drawn) the percent activity (GTP binding) was inactive: 96%. For `COc1ccc(N2CCN(c3nc(=S)n(-c4ccccc4)c(C)c3C(C)=O)CC2)cc1`, the percent activity (GTP binding) was inconclusive: 103%. In the case of `COc1ccc(/C=N/NC(=O)c2ccncc2)cc1Cn1nc([N+](=O)[O-])c(Br)c1C`, the percent activity (GTP binding) is reported as active: 65%. `CCOC(=O)c1ccc(Nc2ccc(-c3ccc(OC)c(OC)c3)nn2)cc1` was tested, and the percent activity (GTP binding) was inconclusive: 103%. In the case of `COC(=O)c1ccc(NC(=O)CSc2nncn2C)cc1`, the percent activity (GTP binding) is reported as inconclusive: 100%. In the case of `CCOC(=O)c1ccccc1NC(=O)CSc1nc2ccccc2c(=O)[nH]1`, the percent activity (GTP binding) is reported as inactive: 92%. `CC(NC(=O)c1cccnc1)C(c1cccs1)N1CCOCC1` (stereo not drawn) was tested, and the percent activity (GTP binding) was inconclusive: 105%. In the case of `Cc1cc(C)n2nc(SC(C)C(=O)Nc3ccc(Cl)cn3)nc2n1` (stereo not drawn), the percent activity (GTP binding) is reported as inactive: 96%. For `O=C(/C=C/c1ccc(N2CCC(c3ccccc3)=N2)cc1)c1ccccc1`, the percent activity (GTP binding) was inconclusive: 348%.
